Measured values reported in the antibiotic and cytotoxicity screens of Wong et al. (2023).
The other results are listed elsewhere or left out.

Assays:
HSkMC = human skeletal muscle cells; test: cytotoxicity call (relative viability < 0.9); conditions: 10 µM
HepG2 = test: cytotoxicity call (relative viability < 0.9); conditions: 10 µM
S. aureus RN4220 = test: growth inhibition call (relative growth <= 0.2); conditions: 50 µM

Row | SMILES | cytotoxicity call (HSkMC) | cytotoxicity call (HepG2) | growth inhibition call (S. aureus RN4220)
1 | O=C(C[C@H]1CC[C@H]2[C@@H](COC[C@@H](O)CN2S(=O)(=O)c2ccccc2Cl)O1)NCc1ccccc1Cl | inactive | inactive | inactive
2 | CCCN1C[C@H](C)[C@H](OC)CN(C)C(=O)c2cc(NS(=O)(=O)c3cn(C)cn3)ccc2OC[C@H]1C | inactive | inactive | inactive
3 | O=C(CCCCCC(=O)Nc1ccccc1O)N/N=C/[C@H](O)[C@@H](O)[C@H](O)[C@H](O)CO | inactive | inactive | inactive
4 | COc1ccc(S(=O)(=O)Nc2ccc3c(c2)C(=O)N([C@H](C)CO)C[C@@H](C)[C@@H](CN(C)Cc2ccc(C(F)(F)F)cc2)OCCCC[C@@H](C)O3)cc1 | active | active | inactive
5 | Cn1c(=O)[nH]c2nc[nH]c2c1=O | inactive | inactive | inactive
6 | COc1ccc(S(=O)(=O)Nc2ccc3c(c2)C(=O)N([C@@H](C)CO)C[C@H](C)[C@@H](CN(C)C(=O)Nc2c(C)noc2C)OCCCC[C@H](C)O3)cc1 | inactive | inactive | inactive
7 | C[C@@H]1CCCCO[C@@H](CN(C)Cc2ccc3c(c2)OCO3)[C@@H](C)CN([C@H](C)CO)C(=O)c2cc(NC(=O)Nc3ccc(C(F)(F)F)cc3)ccc2O1 | inactive | active | inactive
8 | Cc1ccc(S(=O)(=O)N2C[C@H](O)COC[C@@H]3O[C@H](CC(=O)NCc4ccc5c(c4)OCO5)CC[C@H]32)cc1 | inactive | active | inactive
9 | C[C@H](CO)N1C[C@H](C)[C@H](CN(C)S(=O)(=O)c2cn(C)cn2)Oc2c(NS(=O)(=O)c3ccccc3)cccc2C1=O | inactive | inactive | inactive
10 | COC(=O)[C@@H]1CC(=O)O[C@H](C)C/C=C/C=C/[C@H](O)[C@H](C)C[C@H](CC=O)[C@H](O[C@H]2O[C@H](C)[C@@H](O[C@H]3C[C@@](C)(O)[C@@H](OC(=O)CC(C)C)[C@H](C)O3)[C@H](N(C)C)[C@H]2O)[C@H]1OC | inactive | inactive | active
11 | C[C@H](CO)N1C[C@H](C)[C@H](CN(C)Cc2ccc(C(F)(F)F)cc2)Oc2c(NC(=O)Nc3ccccc3)cccc2C1=O | inactive | inactive | inactive
12 | C[C@H](CO)N1C[C@H](C)[C@H](CN(C)C(=O)Nc2ccc(C(F)(F)F)cc2)Oc2ccc(NC(=O)Cc3cn(C)c4ccccc34)cc2C1=O | inactive | inactive | inactive
13 | C[C@@H]1CN([C@H](C)CO)C(=O)Cc2cc(NC(=O)Cn3cnnn3)ccc2O[C@@H]1CN(C)Cc1ccc2c(c1)OCO2 | inactive | inactive | inactive
14 | NC(=O)NC1CCCCC1 | inactive | inactive | inactive
15 | COc1ccc(CN(C)C[C@@H]2Oc3c(NC(=O)Nc4ccc(C(F)(F)F)cc4)cccc3C(=O)N([C@@H](C)CO)C[C@H]2C)cc1 | active | active | inactive
16 | C[C@@H]1CCCCO[C@@H](CN(C)S(=O)(=O)c2ccc(F)cc2)[C@H](C)CN([C@@H](C)CO)C(=O)c2cc(NS(=O)(=O)c3cn(C)cn3)ccc2O1 | inactive | inactive | inactive
17 | C=C1CCC2C(CC2(C)C)C(=O)CCC1O (stereo not given) | inactive | inactive | inactive
18 | C[C@H]1CN([C@@H](C)CO)C(=O)CCCn2nncc2CO[C@@H]1CN(C)S(C)(=O)=O | inactive | inactive | inactive
19 | Cc1noc(C)c1S(=O)(=O)Nc1ccc2c(c1)CC(=O)N([C@H](C)CO)C[C@@H](C)[C@H](CN(C)CC1CC1)O2 | inactive | inactive | inactive
20 | COc1ccc(CN(C)C[C@H]2Oc3ccc(NC(=O)Cn4cnnn4)cc3C(=O)N([C@@H](C)CO)C[C@H]2C)cc1 | inactive | inactive | inactive
21 | CCNC(=O)C[C@H]1CC[C@H]2[C@@H](COC[C@@H](O)CN2C(=O)Nc2c(C)noc2C)O1 | inactive | inactive | inactive
22 | COc1ccc2c3c([nH]c2c1)[C@H](CO)N(C[C@]13CCN(CC1)Cc1cc(ccc1F)F)C(=O)Nc1ccc(cc1)F | inactive | inactive | inactive
23 | C[C@H]1CN([C@@H](C)CO)S(=O)(=O)c2ccc(-c3cccc(C#N)c3)cc2O[C@@H]1CN(C)C(=O)c1ccncc1 | inactive | inactive | inactive
24 | CC(C)CC#Cc1ccc2c(c1)O[C@H](CN(C)C(=O)Cc1ccccn1)[C@@H](C)CN([C@@H](C)CO)S2(=O)=O | inactive | inactive | inactive
25 | COc1ccc(S(=O)(=O)N(C)C[C@H]2Oc3ccc(NC(=O)CCCN(C)C)cc3CC(=O)N([C@@H](C)CO)C[C@@H]2C)cc1 | inactive | inactive | inactive
26 | NCC[C@@H]1CC[C@@H](NC(=O)C2CCC2)[C@@H](CO)O1 | inactive | inactive | inactive
27 | C[C@@H]1CN([C@@H](C)CO)C(=O)c2cc(NC(=O)Nc3ccc(C(F)(F)F)cc3)ccc2O[C@H]1CN(C)C(=O)Nc1cccc2ccccc12 | inactive | inactive | inactive
28 | COC(=O)Nc1nc2cc(C(=O)c3ccccc3)ccc2[nH]1 | inactive | active | inactive

Row | SMILES | cytotoxicity call (HSkMC) | cytotoxicity call (HepG2) | growth inhibition call (S. aureus RN4220)
29 | C[C@H]1CN([C@@H](C)CO)C(=O)Cc2cc(NC(=O)Cn3cnnn3)ccc2O[C@@H]1CN(C)C(=O)Nc1ccc(C(F)(F)F)cc1 | inactive | inactive | inactive
30 | CCC(CO)NCCNC(CC)CO.Cl.Cl (stereo not given) | inactive | inactive | inactive
31 | COC(=O)CCCCCCC(=O)N/N=C/[C@H](O)[C@@H](O)[C@H](O)CO | inactive | inactive | inactive
32 | Cc1noc(C)c1S(=O)(=O)N(C)C[C@@H]1Oc2c(NS(=O)(=O)c3cccs3)cccc2C(=O)N([C@H](C)CO)C[C@@H]1C | inactive | inactive | inactive
33 | CN(CCN)C1CCCCC1 | inactive | inactive | inactive
34 | COc1ccc(S(=O)(=O)Nc2ccc3c(c2)C(=O)N([C@H](C)CO)C[C@@H](C)[C@@H](CN(C)S(C)(=O)=O)O3)cc1 | inactive | inactive | inactive
35 | CSCC[C@H](NC(=O)[C@H](Cc1c[nH]c2ccccc12)NC(=O)CNC(=O)[C@@H](NC(=O)[C@H](Cc1ccc(OS(=O)(=O)O)cc1)NC(=O)[C@H](CC(=O)O)NC(=O)[C@H](CCC(N)=O)NC(=O)[C@@H]1CCC(=O)N1)[C@@H](C)O)C(=O)N[C@@H](CC(=O)O)C(=O)N[C@@H](Cc1ccccc1)C(N)=O | inactive | inactive | inactive
36 | Cc1noc(C)c1S(=O)(=O)N(C)C[C@@H]1OCCCC[C@@H](C)Oc2ccc(N(C)C)cc2C(=O)N([C@@H](C)CO)C[C@@H]1C | inactive | inactive | inactive
37 | C[C@@H]1CCCCO[C@@H](CN(C)Cc2ccc(Cl)c(Cl)c2)[C@H](C)CN([C@@H](C)CO)C(=O)c2cc(NC(=O)Nc3ccc(F)cc3)ccc2O1 | inactive | inactive | inactive
38 | O=C(NCCN1CCCC1)[C@H]1[C@H](CO)[C@H]2Cn3c(cccc3=O)[C@@H]1N2C(=O)NC1CCCC1 | inactive | inactive | inactive
39 | C[C@H]1CN([C@@H](C)CO)C(=O)c2cccc(NS(=O)(=O)c3cn(C)cn3)c2O[C@H]1CN(C)C(=O)Nc1ccc(F)cc1 | inactive | inactive | inactive
40 | C[C@@H]1CN([C@H](C)CO)C(=O)Cc2cc(NC(=O)Cc3cn(C)c4ccccc34)ccc2O[C@@H]1CN(C)Cc1ccc(Oc2ccccc2)cc1 | inactive | active | inactive
41 | N[C@H](C(=O)O)c1ccc(C(=O)O)c(O)c1 | inactive | inactive | inactive
42 | OCCC[C@@H](O)c1ccc(OCCO)cc1 | inactive | inactive | inactive
43 | C[C@H](CO)N1C[C@H](C)[C@H](CN(C)C(=O)Nc2ccc3c(c2)OCO3)OCCCC[C@H](C)Oc2ccc(NS(=O)(=O)c3ccccc3)cc2C1=O | inactive | inactive | inactive
44 | C[C@@H]1CN([C@H](C)CO)C(=O)c2cccc(NC(=O)Nc3cccc4ccccc34)c2O[C@@H]1CN(C)Cc1ccncc1 | inactive | inactive | inactive
45 | Nc1nc(=O)c2nc(CNc3ccc(C(=O)N[C@@H](CCC(=O)O)C(=O)O)cc3)cnc2[nH]1 | inactive | inactive | inactive
46 | COc1ccc(C#Cc2ccc3c(c2)[C@]2(C(=O)N3)[C@H](C(=O)N3CCc4cc(OC)c(OC)cc4C3)[C@H]3C(=O)O[C@H](c4ccccc4)[C@H](c4ccccc4)N3[C@@H]2c2ccccc2OCCO)cc1 | inactive | inactive | inactive
47 | CN1C(=O)c2cc(NC(=O)c3cnccn3)ccc2OC[C@@H]2O[C@H](CC(=O)N[C@@H]3CCN(Cc4ccccc4)C3)CC[C@H]21 | inactive | inactive | inactive
48 | Cc1noc(C)c1S(=O)(=O)Nc1ccc2c(c1)C(=O)N([C@H](C)CO)C[C@@H](C)[C@@H](CN(C)S(C)(=O)=O)O2 | inactive | inactive | inactive
49 | C[C@@H]1CN([C@@H](C)CO)C(=O)CCCn2nncc2CO[C@H]1CN(C)S(=O)(=O)c1ccc(Oc2ccccc2)nc1 | inactive | inactive | inactive
50 | COc1ccc(S(=O)(=O)Nc2ccc3c(c2)CC(=O)N([C@H](C)CO)C[C@H](C)[C@H](CN(C)S(=O)(=O)c2cn(C)cn2)O3)cc1 | inactive | inactive | inactive
51 | CCCCC/C=C\C=C\CCCCCCCCC(=O)O | inactive | inactive | inactive
52 | O=C(O)CNC(=O)CN1C(=O)c2ccccc2C1=O | inactive | inactive | inactive
53 | NNC(=O)c1ccc(CN2CCCCC2)o1 | inactive | inactive | inactive
54 | CC(C)NC(=O)Nc1ccc2c(c1)C(=O)N([C@@H](C)CO)C[C@@H](C)[C@@H](CN(C)C(=O)C1CCCCC1)OCCCC[C@H](C)O2 | inactive | inactive | inactive
55 | COc1ccc2c3c([nH]c2c1)[C@H](CO)N(C[C@]13CCN(CC1)C(=O)Nc1cccc(c1)F)C(=O)c1ccccc1 | inactive | inactive | inactive
